Here are results for 153 variants from a collection of fitness landscapes (doi:10.1126/science.1257360).

This is one part of the list.

B1: PhoQ; a variant is named by its letters at X, in order, P23837 (parent)
chain: MKKLLRLFFPLSLRVRFLLATAAVVLVLSLAYGMVALIGYSVSFDKTTFRLLRGESNLFYTLAKWENNKLHVELPENIDKQSPTMTLIYDENGQLLWAQRDVPWLMKMIQPDWLKSNGFHEIEADVNDTSLLLSGDHSIQQQLQEVREDDDDAEMTHSVAVNVYPATSRMPKLTIVVVDTIPVELKSSYMVWSWFIYVLSANLLLVIPLLWVAAWWSLRPIEALAKEVRELEEHNRELLNPATTRELTSLVRNLNRLLKSERERYDKYRTTLTDLTHSLKTPLXXLQXXLRSLRSEKMSVSDAEPVMLEQISRISQQIGYYLHRASMRGGTLLSRELHPVAPLLDNLTSALNKVYQRKGVNISLDISPEISFVGEQNDFVEVMGNVLDNACKYCLEFVEISARQTDEHLYIVVEDDGPGIPLSKREVIFDRGQRVDTLRPGQGVGLAVAREITEQYEGKIVAGESMLGGARMEVIFGRQHSAPKDE

The assay covers variants of B1. As to the kind of experiment: enrichment ratio after two sorts for PhoP signalling (ratio (wild type AVST 3.29)); higher = more functional. As to conditions: with PhoP (E. coli).
For NNCE, the enrichment ratio is at most 0.25.

On to EKII, for which the enrichment ratio is at most 0.25.

Regarding VMFE, the enrichment ratio was at most 0.25.

Take KALF: the enrichment ratio is at most 0.25.

Turning to DRNR, the enrichment ratio was at most 0.25.

Consider YCDI, for which the enrichment ratio was at most 0.25.

As for GPEN, the enrichment ratio is at most 0.25.

As to ESEH, the enrichment ratio is at most 0.25.

Regarding QDEL, the enrichment ratio is at most 0.25.

Consider YIFV, for which the enrichment ratio is at most 0.25.

Consider RFSW, for which the enrichment ratio is at most 0.25.

As to SEWI, the enrichment ratio worked out at 3.57.

In the case of VINS, the enrichment ratio is at most 0.25.

Turning to MVSF, the enrichment ratio was 3.84.

As for LDFE, the enrichment ratio is at most 0.25.

As for HKQC, the enrichment ratio was at most 0.25.

With QWPA, the enrichment ratio was at most 0.25.

As for LFAQ, the enrichment ratio is at most 0.25.

GNLP: the enrichment ratio was at most 0.25.

As to NKYY, the enrichment ratio was at most 0.25.

With TFLH, the enrichment ratio was at most 0.25.

As for GPFK, the enrichment ratio is at most 0.25.

On to SHVK, for which the enrichment ratio is at most 0.25.

As for DRLA, the enrichment ratio was at most 0.25.

In the case of ETIF, the enrichment ratio was at most 0.25.

Consider ICQL, for which the enrichment ratio was at most 0.25.

As for KIYF, the enrichment ratio was at most 0.25.

HKQA: the enrichment ratio was at most 0.25.

RFEG: the enrichment ratio is at most 0.25.

On to NDFV, for which the enrichment ratio is at most 0.25.

Regarding DTHM, the enrichment ratio is at most 0.25.

With EKYV, the enrichment ratio was at most 0.25.

As to AELL, the enrichment ratio turned out to be 12.1.

Turning to TFLE, the enrichment ratio was at most 0.25.

As for GTDS, the enrichment ratio is at most 0.25.

With SRTV, the enrichment ratio was at most 0.25.

Turning to PDYI, the enrichment ratio is at most 0.25.

As to PSEC, the enrichment ratio was at most 0.25.

Regarding TPHP, the enrichment ratio was at most 0.25.

Take WSWI: the enrichment ratio is at most 0.25.

For the variant GDMN, the enrichment ratio is at most 0.25.

LELL: the enrichment ratio is at most 0.25.

On to WVEP, for which the enrichment ratio is at most 0.25.

As to ESRK, the enrichment ratio is at most 0.25.

As for QDHV, the enrichment ratio was at most 0.25.

With LGRG, the enrichment ratio is at most 0.25.

As for FSQM, the enrichment ratio is at most 0.25.

For the variant DHST, the enrichment ratio was at most 0.25.

With YNDC, the enrichment ratio was at most 0.25.

With SYWF, the enrichment ratio was at most 0.25.

Turning to FCGD, the enrichment ratio is at most 0.25.

Regarding ESLA, the enrichment ratio was at most 0.25.

Take WWVR: the enrichment ratio is at most 0.25.

On to LQYR, for which the enrichment ratio was at most 0.25.

With ASGF, the enrichment ratio turned out to be 8.63.

Regarding WQFC, the enrichment ratio is at most 0.25.

As to PLLE, the enrichment ratio was at most 0.25.

Turning to VQEF, the enrichment ratio is at most 0.25.

Consider EDFA, for which the enrichment ratio was at most 0.25.

Regarding DIYH, the enrichment ratio was at most 0.25.

WDYD: the enrichment ratio was at most 0.25.

Take WCIN: the enrichment ratio was at most 0.25.

Regarding AERR, the enrichment ratio is at most 0.25.

With ALGM, the enrichment ratio is 1.85.

As to IVVE, the enrichment ratio was at most 0.25.

With VSLM, the enrichment ratio turned out to be 7.64.

As to VGIF, the enrichment ratio is at most 0.25.

Consider NERL, for which the enrichment ratio was at most 0.25.

In the case of HDWH, the enrichment ratio was at most 0.25.

With MRME, the enrichment ratio is at most 0.25.

On to DGQC, for which the enrichment ratio was at most 0.25.

Regarding HFCG, the enrichment ratio was at most 0.25.

With IGRN, the enrichment ratio was at most 0.25.

On to KFDC, for which the enrichment ratio was at most 0.25.

On to DKHL, for which the enrichment ratio was at most 0.25.

For the variant LPEA, the enrichment ratio was at most 0.25.

For the variant PPWE, the enrichment ratio was at most 0.25.

Turning to MHIA, the enrichment ratio was at most 0.25.

Take LSMW: the enrichment ratio is 1.03.

Turning to PQFV, the enrichment ratio is at most 0.25.

With AAKF, the enrichment ratio is at most 0.25.

In the case of ISCQ, the enrichment ratio is at most 0.25.

Regarding VTTG, the enrichment ratio is at most 0.25.

On to PHMA, for which the enrichment ratio was at most 0.25.

As for PSEQ, the enrichment ratio was at most 0.25.

Take DSHK: the enrichment ratio is at most 0.25.

In the case of GRRL, the enrichment ratio is at most 0.25.

Consider DFQR, for which the enrichment ratio is at most 0.25.

Turning to GMFA, the enrichment ratio was at most 0.25.

In the case of LQSR, the enrichment ratio was at most 0.25.

For the variant EIQV, the enrichment ratio is at most 0.25.

With NYQQ, the enrichment ratio is at most 0.25.

Take DTEI: the enrichment ratio was at most 0.25.

Turning to ATSY, the enrichment ratio came to 11.

Take RDSP: the enrichment ratio was at most 0.25.

MRCW: the enrichment ratio is at most 0.25.

As to LSQR, the enrichment ratio was at most 0.25.

For the variant ELGL, the enrichment ratio is at most 0.25.

As to WSER, the enrichment ratio is at most 0.25.

Take DDET: the enrichment ratio is at most 0.25.

Take VIRT: the enrichment ratio is at most 0.25.

For the variant IQSS, the enrichment ratio was at most 0.25.

On to KNGQ, for which the enrichment ratio is at most 0.25.

As to WMLA, the enrichment ratio was at most 0.25.

Regarding LSQP, the enrichment ratio was at most 0.25.

With TVQA, the enrichment ratio was 0.404.

With MRSN, the enrichment ratio was at most 0.25.

In the case of YNTM, the enrichment ratio is at most 0.25.

Consider NKLD, for which the enrichment ratio is at most 0.25.

In the case of WMMY, the enrichment ratio is at most 0.25.

In the case of GSFD, the enrichment ratio is at most 0.25.

With WARD, the enrichment ratio was at most 0.25.

For the variant TRWY, the enrichment ratio is at most 0.25.

In the case of RYWR, the enrichment ratio is at most 0.25.

Regarding WYSN, the enrichment ratio is at most 0.25.

In the case of WPCY, the enrichment ratio was at most 0.25.

For ESHG, the enrichment ratio is at most 0.25.

For the variant DCFV, the enrichment ratio was at most 0.25.

For the variant NFYK, the enrichment ratio was at most 0.25.

QPAF: the enrichment ratio was at most 0.25.

With EGLF, the enrichment ratio is at most 0.25.

On to FMVA, for which the enrichment ratio was at most 0.25.

With WVTS, the enrichment ratio is at most 0.25.

With ELIK, the enrichment ratio was at most 0.25.

Consider KFMC, for which the enrichment ratio was at most 0.25.

With TIIK, the enrichment ratio was at most 0.25.

For FQWW, the enrichment ratio was at most 0.25.

On to AFDP, for which the enrichment ratio was at most 0.25.

Consider DGSM, for which the enrichment ratio is at most 0.25.

On to FWHW, for which the enrichment ratio is at most 0.25.

With DNGF, the enrichment ratio is at most 0.25.

Regarding RWDR, the enrichment ratio was at most 0.25.

Consider GHHG, for which the enrichment ratio was at most 0.25.

Consider QYGS, for which the enrichment ratio is at most 0.25.

Consider MADG, for which the enrichment ratio was at most 0.25.

As to WSWG, the enrichment ratio is at most 0.25.

On to PHTM, for which the enrichment ratio was at most 0.25.

GDYY: the enrichment ratio was at most 0.25.

As to SQQM, the enrichment ratio was found to be 15.9.

In the case of YHQS, the enrichment ratio is at most 0.25.

Regarding SWSE, the enrichment ratio was at most 0.25.

As for AECC, the enrichment ratio is 16.3.

For QAAL, the enrichment ratio turned out to be 3.3.

With HMTH, the enrichment ratio was at most 0.25.

As for SLAW, the enrichment ratio was determined as 5.36.

Consider NGDK, for which the enrichment ratio was at most 0.25.

Regarding ETHS, the enrichment ratio was at most 0.25.

With RAIH, the enrichment ratio was at most 0.25.

For SWWK, the enrichment ratio was at most 0.25.

For the variant TMNR, the enrichment ratio is at most 0.25.

With GCIS, the enrichment ratio is 2.07.

Regarding MLGY, the enrichment ratio is at most 0.25.

Turning to SMFY, the enrichment ratio is at most 0.25.
